# Measured values taken from PubChem BioAssay AID624296 (National Center for Advancing Translational Sciences (NCATS), 2012).
# About 9,900 (2.8%) of roughly 350,000 compounds were called active. The inconclusive results got no clear call from the source; some entries with a clear call stand among them for comparison. Calls come from the whole dose curve; as a rule, active = well fitted activation curve with a large enough effect; inconclusive = small, poorly fitted or top-dose-only effect; inactive = no such curve, though single readings can be large or run the other way. Potencies of inconclusive entries are left out as doubtful fits.
# Assay: A quantitative high throughput screen for small molecules that induce DNA re-replication in MCF 10a normal breast cells. For activity, positive = re-replication: % of control where 0% means no effect. Note: nearly all actives have a fitted effect of over 50% in size.
# Conditions: MCF 10A DNA re-replication, Hoechst nuclear intensity, 48 h; activity, positive = re-replication: at 46.1 µM (top of the series)
# Potency is the fitted concentration of half-maximal effect; tags give direction and shape of the fitted curve.
Structure (SMILES),"activity, positive = re-replication",Potency
O=C(Nc1ccc(Cl)c([N+](=O)[O-])c1)ONC1=NCCCCC1,inactive: -5.95%,
CCc1nc(Nc2cc(OC)ccc2OC)c2oc3ccccc3c2n1,,"inconclusive [activator, partial curve, poor fit]"
COc1c(-c2ccc(O)c(O)c2)oc2cc(O)cc(O)c2c1=O,inactive: 16%,
COc1ccccc1N1CCN(C(=O)COc2ccc(Cl)cc2Br)CC1,,"inconclusive [activator, partial curve, poor fit]"
O=C(Nc1ccc(Cl)cc1)Nc1ccc(N2CCCC2)c(S(=O)(=O)Nc2ccccc2Cl)c1,,"inconclusive [activator, single point]"
Cc1ccccc1Nc1c(-c2ccncc2)nc2ccc(Cl)cn12,,"inconclusive [activator, single point]"
O=C(Cn1nnc(-c2ccccc2-n2cnnn2)n1)c1ccccc1,,active: 18.4 µM
CC(C)(C)OC(=O)COc1cc(O)c2c(=O)cc(-c3ccccc3)oc2c1,inactive: 7.3%,
CCOC(=O)C1=C(C)N(c2ccccc2)C(=O)NC1c1cccc([N+](=O)[O-])c1 (stereo not given),,"inconclusive [activator, single point]"
O=C(NCCO)C1CCN(C(=O)c2ccc(-c3ccccc3)cc2)CC1,,"inconclusive [activator, single point]"
COc1ccc(CCNCC2C(Oc3ccc(Cl)cc3)C(=O)N2c2ccccc2C)cc1OC (stereo not given),inactive: 9.35%,
C=CCOc1ccnc(-c2ccccc2)n1,,"inconclusive [activator, partial curve, poor fit]"
C/C=C\C=C/C(=O)Nc1cccc(C2=NOC3(C2)C[C@@H](C(N)=O)N(C(=O)C2(C)CC2)C3)c1 (stereo not given in full),,"inconclusive [activator, partial curve, poor fit]"
COc1ccc(-c2nc3ncccc3o2)cc1NC(=O)c1cccs1,,"inconclusive [activator, partial curve, poor fit]"
Cc1cccc(NC(=O)CN2C(=S)NC(C)(C)CC2C)c1 (stereo not given),inactive: -0.427%,
CCOC(=O)c1ccc(S(=O)(=O)N2CC(=O)Nc3ccccc32)cc1,,"inconclusive [activator, single point]"
N#CC(C#N)=C1NC2(CCCCC2)Cc2ccccc21,inactive: 12.4%,
O=C(O)C1CCN(S(=O)(=O)c2ccc3c(c2)OCCCO3)CC1,,"inconclusive [activator, single point]"
COc1ccc(S(=O)(=O)NNC(=O)C2COc3ccccc3O2)cc1[N+](=O)[O-] (stereo not given),,"inconclusive [activator, partial curve]"
COc1cccc(N(CC(=O)NC2CCCCC2)C(=O)CCC(=O)Nc2nc(C)cs2)c1,,"inconclusive [activator, single point]"
COc1ccc(NC(=O)c2ccc(Cl)c(S(=O)(=O)N3CCc4ccccc4C3)c2)cn1,,"inconclusive [activator, partial curve, poor fit]"
COc1ccc(CCC(=O)N(C)CC(=O)Nc2ccc(Cl)c(C(F)(F)F)c2)cc1,,"inconclusive [activator, single point]"
Cn1c(NC(=O)c2ccccc2NC(=O)C(C)(C)C)nc2ccccc21,inactive: -1.63%,
Cc1cc(C(=O)N2CCc3ccccc3C2)n[nH]1,inactive: 7.82%,

Structure (SMILES),"activity, positive = re-replication",Potency
CC[C@H]1c2[nH]c3ccccc3c2C[C@H]2C(=O)N(c3ccc(F)cc3)C(=O)N21,,"inconclusive [activator, full curve, poor fit]"
CCN(CCO)Cc1cn[nH]c1-c1ccc(C)c(C)c1,inactive: 0.975%,
CC(=O)Nc1ccc(NC(=O)C(=O)NCC(c2ccco2)N2CCc3ccccc3C2)cc1 (stereo not given),,"inconclusive [activator, partial curve, poor fit]"
CCOC(=O)Nc1sc(C(=O)N(CC)CC)c(C)c1C(=O)OCC,inactive: 11.1%,
CCOCC(O)COc1ccc(NC(=O)CC[S+](C)C)cc1 (stereo not given),inactive: 8.62%,
COc1ccc(C)cc1S(=O)(=O)Nc1cccc(-c2ccc(N3CCCCCC3)nn2)c1,,"inconclusive [activator, single point]"
CCCC(O)(c1ccc(Br)cc1)C(CN1CCOCC1)c1ccc(Cl)cc1 (stereo not given),,"inconclusive [activator, single point]"
COc1ccc(-n2nc([N+](=O)[O-])c(=NCCc3cccc(C)c3)n2O)cc1,,"inconclusive [activator, partial curve, poor fit]"
Cc1ccc(S(=O)(=O)N2CCN(C(=O)CSCc3ccc(C(C)C)cc3)CC2)cc1,inactive: 3.9%,
Cc1ccc(CN2CCSc3ccc(C(=O)NCC4CCCO4)cc32)cc1 (stereo not given),,"inconclusive [activator, single point]"
Cc1cc2c(cc(C(=O)OCC(=O)NCc3ccco3)n2C)s1,,"inconclusive [activator, full curve]"
O=C(Nc1cccc(C(=O)N2CCOCC2)c1)c1ccc([N+](=O)[O-])cc1,inactive: -4.27%,
CC(CCN1CCC(CN2C(=S)NCC2Cc2ccccc2)CC1)c1ccccc1 (stereo not given),,"inconclusive [activator, partial curve, poor fit]"
Oc1ccc(N=Cc2ccc(OCc3ccccc3)cc2)cc1,,"inconclusive [activator, single point]"
COC(=O)c1ccc(NC2=CC(=O)CC(C)(C)C2)cc1,,"inconclusive [activator, single point]"
Cc1ccc(-c2csc3ncnc(N4CCc5ccccc5C4)c23)cc1,,active: 18.4 µM
Cc1ccc(C)c(-c2nnc(NC(=O)CCS(=O)(=O)c3ccccc3)o2)c1,,"inconclusive [activator, single point]"
COCCNC(=S)N1CCN(c2cccc(C)c2C)CC1,inactive: 11%,
O=C(CN1C(=O)S/C(=C\c2ccc(F)cc2)C1=O)NC1C=CS(=O)(=O)C1 (stereo not given),inactive: 2.69%,
O=C(c1cc(Cl)c(=O)n(Cc2ccc(Cl)cc2)c1)N1CCOCC1,inactive: -1.08%,
Cc1ccc(C2=NNC(c3ccc(Cl)cc3)=Nc3ccccc32)o1,,"inconclusive [activator, partial curve, poor fit]"
Cc1cccc(C2(c3cccc(C)c3)CC2C(=O)Nc2ccc([N+](=O)[O-])cc2O)c1 (stereo not given),,"inconclusive [activator, partial curve]"
COc1ccccc1NC(=O)c1sc2ncn(Cc3ccc(C)cc3)c(=O)c2c1C,,"inconclusive [activator, partial curve, poor fit]"
COc1ccc(C(=O)O/N=C(\N)Cc2ccc(Cl)c(Cl)c2)cc1OC,,"inconclusive [activator, single point]"

Structure (SMILES),"activity, positive = re-replication",Potency
Cc1nn2cc(-c3ccc(-c4ccccc4)cc3)nc2s1,inactive: 6.37%,
Cc1cc(C)n(Cc2ccc(NC(=O)c3nn(C)cc3[N+](=O)[O-])cc2)n1,,active: 2.31 µM
O=C(NC1CC1)C1CCN(C2CCN(C(=O)/C=C/c3ccc(F)cc3)CC2)CC1,,"inconclusive [activator, single point]"
CCn1c(SCc2ccccc2)nc2cc(OC)c(OC)cc2c1=O,,"inconclusive [activator, single point]"
COc1ccc(NC(=O)c2sc(-c3ccccc3)nc2C)c(OC)c1,,"inconclusive [activator, single point]"
O=c1c2ccccc2nc2c3ccccc3c(NCc3ccccn3)nn12,,"inconclusive [activator, single point]"
COc1ccccc1/C=C/C(=O)Nc1ccc(S(=O)(=O)Nc2cc(C)nc(C)n2)cc1,,"inconclusive [activator, single point]"
CCN(CC(=O)Nc1ccc(NC(C)=O)cc1)C(=O)c1cn(-c2ccccc2)nc1-c1cccs1,,"inconclusive [activator, partial curve, poor fit]"
C/C(=N\OCC(=O)Nc1ccccc1Br)c1cccs1,,"inconclusive [activator, partial curve, poor fit]"
Cc1ccccc1C(=O)OC1OC(=O)C(Cl)=C1Nc1ccc(C(=O)O)cc1 (stereo not given),,"inconclusive [activator, single point]"
O=C(CN1C(=O)CSc2ccccc21)N/N=C/c1ccco1,,"inconclusive [activator, full curve, poor fit]"
COc1ccccc1-c1cc(C(F)(F)F)nc(N2CCCC2)n1,,active: 25.9 µM
Cc1ccc(OCCNS(=O)(=O)c2ccc(N3CCCC3=O)cc2)cc1,inactive: 3.44%,
COc1cc(C(=O)/C=C/c2cccnc2)c([N+](=O)[O-])cc1OC,,active: 23.1 µM
CCCCC(=O)N(c1ccc(OCC)cc1)C1C=CS(=O)(=O)C1 (stereo not given),,active: 13 µM
CCOC(=O)Cn1cc(Cl)cc(C(=O)Nc2ccccc2)c1=O,inactive: 7.86%,
CCCn1c(SCC(=O)NCc2ccco2)nnc1-c1ccncc1,,"inconclusive [activator, full curve, poor fit]"
C=CCNC(=S)NCC1COc2ccccc2O1 (stereo not given),inactive: -30.8%,
c1ccc(-c2cc(-c3ccncc3)nc3ccc4ccccc4c23)cc1,,active: 14.6 µM
CSCC[C@H](NC(=O)c1ccc(Cl)c([N+](=O)[O-])c1)c1nc2ccccc2[nH]1,,"inconclusive [activator, single point]"
O=C(Nc1ccon1)C1CCN(S(=O)(=O)c2cccs2)CC1,inactive: 1.94%,
COc1ccc(-c2cc(C(F)(F)F)n3nc(C(=O)N(C)Cc4ccccc4)cc3n2)cc1OC,,"inconclusive [activator, full curve]"
